Source: the supplement of paper PMC3334620
Over roughly 33,000 sequences, “E-score (-0.5 to 0.5)” has its median near -0.012; the highest 2% begin near 0.29. The list shows a part of the results.

Target: T1, Ybr033w (UniProt P38073)
T1 sequence: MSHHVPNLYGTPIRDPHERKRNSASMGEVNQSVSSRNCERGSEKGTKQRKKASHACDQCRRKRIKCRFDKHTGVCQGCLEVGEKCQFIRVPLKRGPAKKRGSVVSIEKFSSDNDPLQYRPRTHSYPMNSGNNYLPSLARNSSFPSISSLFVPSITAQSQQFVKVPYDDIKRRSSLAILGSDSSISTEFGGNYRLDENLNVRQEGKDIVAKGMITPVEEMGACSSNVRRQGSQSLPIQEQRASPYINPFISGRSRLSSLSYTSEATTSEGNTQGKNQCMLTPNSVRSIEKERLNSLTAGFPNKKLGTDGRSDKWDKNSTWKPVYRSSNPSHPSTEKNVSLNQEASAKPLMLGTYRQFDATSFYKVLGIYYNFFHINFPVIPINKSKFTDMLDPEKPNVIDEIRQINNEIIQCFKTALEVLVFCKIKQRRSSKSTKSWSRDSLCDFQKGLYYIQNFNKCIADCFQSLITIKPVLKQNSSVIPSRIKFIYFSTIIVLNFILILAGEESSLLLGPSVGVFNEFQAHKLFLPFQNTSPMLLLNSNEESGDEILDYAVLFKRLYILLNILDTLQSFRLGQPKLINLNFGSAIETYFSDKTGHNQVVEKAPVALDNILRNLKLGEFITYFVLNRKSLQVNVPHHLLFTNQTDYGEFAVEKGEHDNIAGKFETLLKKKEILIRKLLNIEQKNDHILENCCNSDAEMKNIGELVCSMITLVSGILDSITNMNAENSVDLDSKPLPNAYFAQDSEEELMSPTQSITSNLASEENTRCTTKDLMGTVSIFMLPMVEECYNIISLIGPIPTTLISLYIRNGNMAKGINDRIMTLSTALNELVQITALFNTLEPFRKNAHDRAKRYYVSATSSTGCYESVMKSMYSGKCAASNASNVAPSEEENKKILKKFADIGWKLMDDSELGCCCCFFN
Assay: PBM E-score (8-mer binding enrichment) (E-score (-0.5 to 0.5)); higher = stronger / more preferred TF binding; most listed sequences are background and not binding sites
Details: protein concentration: 200 nM; construct: GST-full length
In short: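 Universal all-10-mer Agilent arrays, double-stranded by primer extension on fresh or once-stripped slides, were probed with about 100-200 nM GST-tagged yeast transcription factors made by PURExpress. Fluorescent anti-GST detected bound protein, and masliner normalised the scans. E-scores from the Universal PBM Analysis Suite were given to each ungapped eight-base word pooled with its reverse complement.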

| Sequence | PBM E-score |
| --- | --- |
| CCACAGGC | -0.336 |
| GCCACAAC | 0.0425 |
| AGTACCGA | -0.154 |
| AGAGCGCC | -0.18 |
| GATTGACC | -0.132 |
| ACGAGCCA | -0.163 |
| AAGCCCGC | -0.212 |
| GACTGATC | -0.13 |
| AGCCATCG | -0.1 |
| AGTCTAAT | 0.0593 |
| AGGGTCTG | -0.275 |
| GATTGACA | 0.154 |
| CCAAAGAA | 0.101 |
| AGACATTC | -0.00346 |
| CCTGTGCA | -0.185 |
| CAGACCAG | -0.0218 |
| GGCAAGGA | -0.104 |
| CAGCACTG | -0.107 |
| AAGAGAGC | -0.205 |
| CCGGTAAA | 0.151 |
| ACTCGACC | -0.205 |
| ATAGATAA | 0.28 |

| Sequence | PBM E-score |
| --- | --- |
| CACTGTAG | 0.167 |
| ATGGCGCC | -0.132 |
| AGACGGCA | -0.0714 |
| TATGTCAA | 0.318 |
| CCGATCCG | -0.16 |
| AATCGCGA | 0.0169 |
| CCATAAGC | -0.118 |
| AAGTCGCA | 0.123 |
| AAGCGGGC | -0.309 |
| ATACCTCG | 0.196 |
| CCTATCGC | -0.207 |
| ATATGGTC | 0.0639 |
| CCACGCAC | -0.0101 |
| CTCGCTTA | 0.0424 |
| ATCTGCCA | -0.137 |
| AAATTGTT | 0.317 |
| ATAACCTG | 0.0845 |
| ATGATTGA | -0.0158 |
| ACAGCTGC | -0.0919 |
| ACCACACA | 0.182 |
| GGAGGGCC | -0.176 |
| CTGACCTA | -0.169 |

| Sequence | PBM E-score |
| --- | --- |
| AGCTGAAT | 0.135 |
| CATCAGTA | 0.0531 |
| CCTAACGC | -0.00181 |
| CACTGTTA | -0.0716 |
| AACCGAGG | -0.305 |
| CGTTCCTC | -0.0873 |
| CATTGTAA | 0.0608 |
| ACCGCTGC | -0.31 |
| AACCGCAG | 0.0187 |
| ACGACTCC | 0.0443 |
| CATCATGA | -0.00442 |
| ATAACTTA | 0.19 |
| GAGTTGTA | 0.174 |
| CCCCGCCG | -0.0998 |
| CGACTGAG | -0.0895 |
| AGTGGAAT | 0.0873 |
| CATTAACA | 0.139 |
| CGCTGATA | -0.0541 |
| ACGGCTGG | -0.0873 |
| ATGACATG | -0.136 |
| CAGAGTAG | -0.0934 |
| ACAGGCGG | -0.0121 |

| Sequence | PBM E-score |
| --- | --- |
| AGGTACGG | -0.182 |
| GACAGTCC | -0.164 |
| ACGACAAG | -0.0398 |
| CCTAGTCA | -0.156 |
| AAAGTGAC | 0.105 |
| GTCAAAAA | 0.179 |
| CTTCGAGA | -0.138 |
| GCTTGGCA | -0.15 |
| ACTGGCCT | -0.0126 |
| TAAATATA | 0.353 |
| GTGCGCGA | -0.215 |
| CACACAAA | 0.247 |
| AGAGGCAC | -0.219 |
| CAGTTCAC | 0.0016 |
| ATATTGTG | 0.0988 |
| ATTAACAG | 0.0928 |
| GTATGGCA | -0.0717 |
| GTCAGCTA | -0.241 |
| CAGTATCA | -0.0137 |
| ATGCCACG | -0.193 |
